# Reference: paper PMC4336329 (PLoS ONE, 2015)
# Screen size: about 310,000 compounds; about 2,200 (0.71%) showed an effect of 50% or more. Effects have a minus sign here. The list shows a part of the results.
# Target: human ether-à-go-go-related gene (hERG) potassium channel (human, UniProt Q12809)
# Assay: primary screen, population patch clamp on CHO cells stably expressing hERG
# human ether-à-go-go-related gene (hERG) potassium channel, sequence (Q12809 whole entry, looked up): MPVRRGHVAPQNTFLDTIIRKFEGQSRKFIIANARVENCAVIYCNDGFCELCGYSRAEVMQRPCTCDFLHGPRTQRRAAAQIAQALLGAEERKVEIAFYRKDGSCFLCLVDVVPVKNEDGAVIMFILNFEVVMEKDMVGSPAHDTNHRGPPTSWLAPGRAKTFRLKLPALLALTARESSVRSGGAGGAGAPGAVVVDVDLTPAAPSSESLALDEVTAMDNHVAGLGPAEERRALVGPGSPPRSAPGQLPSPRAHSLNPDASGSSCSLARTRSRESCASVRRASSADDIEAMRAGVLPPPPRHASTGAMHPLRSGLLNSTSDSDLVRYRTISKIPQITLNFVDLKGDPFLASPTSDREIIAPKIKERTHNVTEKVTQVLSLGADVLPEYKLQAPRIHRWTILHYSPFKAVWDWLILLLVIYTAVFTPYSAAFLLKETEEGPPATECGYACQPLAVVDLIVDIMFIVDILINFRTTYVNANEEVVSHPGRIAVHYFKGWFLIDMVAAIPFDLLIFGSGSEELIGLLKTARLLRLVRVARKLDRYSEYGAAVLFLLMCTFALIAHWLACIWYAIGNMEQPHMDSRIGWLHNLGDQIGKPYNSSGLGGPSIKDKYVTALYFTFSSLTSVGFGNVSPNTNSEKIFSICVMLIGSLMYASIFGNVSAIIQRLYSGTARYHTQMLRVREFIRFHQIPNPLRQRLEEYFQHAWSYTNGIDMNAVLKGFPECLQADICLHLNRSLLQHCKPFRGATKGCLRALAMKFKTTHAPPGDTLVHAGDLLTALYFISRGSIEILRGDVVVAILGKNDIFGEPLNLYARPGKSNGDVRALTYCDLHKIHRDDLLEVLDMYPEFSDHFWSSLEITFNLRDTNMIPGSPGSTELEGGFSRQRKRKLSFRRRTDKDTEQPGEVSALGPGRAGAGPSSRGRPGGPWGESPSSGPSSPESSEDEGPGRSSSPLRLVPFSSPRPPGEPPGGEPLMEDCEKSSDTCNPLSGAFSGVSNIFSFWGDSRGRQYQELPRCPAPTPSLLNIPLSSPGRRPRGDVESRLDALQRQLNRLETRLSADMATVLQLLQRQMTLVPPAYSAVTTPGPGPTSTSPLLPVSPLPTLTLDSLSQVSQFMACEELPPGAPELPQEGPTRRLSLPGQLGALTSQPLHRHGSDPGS
row,SMILES,"hERG current change (%, negative = inhibition) at 1uM [%]"
1,Cc1cc2ccccn2c1C(=O)c1ccc(NN)c([N+](=O)[O-])c1,0.0612
2,O=S(=O)(c1ccc(-c2ccccc2)cc1)N1CCCC1,4.65
3,C/C(CC(=O)Nc1ccc2c(c1)OCCO2)=N\NC(=O)c1ccccc1F,19.7
4,COc1ccc(-c2csc(NC(=O)c3cccs3)c2C(=O)O)cc1OC,9.47
5,O=C(NCc1ccccc1F)C1CCCN(C(=O)Nc2ccccc2)C1 (stereo not drawn),4.6
6,Cc1cc(S(=O)(=O)N2CCOCC2)ccc1OCC(=O)NCC1CCCO1 (stereo not drawn),12.9
7,Cc1cccc(C)c1NC(=O)CN(C)C(=O)c1cccc(S(=O)(=O)N2CCN(c3ccc(F)cc3)CC2)c1,11.5
8,Cc1nnc(SCc2cc(=O)[nH]c(=S)[nH]2)s1,12.3
9,CCc1ccc(-c2cc(C)no2)cc1S(=O)(=O)N1CCOc2ccc(C)cc21,15.8
10,CCN(CC)C(=O)c1sc(NC(=S)N2CCN(C(=O)C3CCCO3)CC2)c(C(=O)OC)c1C (stereo not drawn),9.08
11,CCNC(=S)N1CCn2cccc2C1c1ccc(F)cc1 (stereo not drawn),2.63
12,CCc1ccc(NC(=O)C(C)OC(=O)C2CCN(c3ccc(C(F)(F)F)cn3)CC2)cc1 (stereo not drawn),-5.81
13,O=C(NCc1ccco1)c1ccc(COc2ccccc2[N+](=O)[O-])o1,4.09
14,COc1ccc(OCC(=O)NCCc2c[nH]c3ccccc23)cc1.O=C(O)C(=O)O,13.1
15,CCCCCc1cc(=O)oc2c(C(CCN(CC)CC)c3ccc(N(C)C)cc3)c(OC)cc(OC)c12 (stereo not drawn),-0.563
16,CCN1CCN(CCNC(=O)c2ccc3c(c2)N(Cc2cccc(Cl)c2)C(=O)c2ccccc2S3=O)CC1 (stereo not drawn),12.9
17,O=C(OCC(=O)N1CCOCC1)c1ccc2[nH]c3c(c2c1)CCCC3,6.84
18,COc1ccc(NC2CCCN(C(=O)c3oc(C)cc3C)C2)cc1OC (stereo not drawn),22.2
19,CC(=O)Nc1nc(-c2ccc3c(c2)CCN3C(=O)C2CC2)c(C)s1,7.72
20,CCc1nccn1CCC(=O)N1CCCC(Nc2ccc(F)cc2)C1 (stereo not drawn),-2.46
21,CC1(C)CC2CC(C)(CN2C(=S)Nc2ccccc2)C1 (stereo not drawn),10.4
22,CCN(CC(=O)Nc1ccccc1OC)CC(=O)Nc1ccccc1-c1ccccc1,-4.49

row,SMILES,"hERG current change (%, negative = inhibition) at 1uM [%]"
1,CCSc1nnc2n1C(C)(C)Cc1ccccc1-2,14.2
2,COc1ccc(-c2nn(-c3ccccc3)cc2C(=O)N/N=C/c2ccc([N+](=O)[O-])o2)cc1,-13.5
3,COc1ccc(Cl)cc1C(=O)NCc1ccc2c(c1)OCO2,13
4,O=C(COc1ccc(Cl)cc1)Nc1ccccc1C(=O)NCc1ccco1,13.2
5,O=C(/C=C(\c1ccccc1)n1cncn1)c1ccccc1,14
6,CCOC(=O)c1sc2nc(C)nc(Nc3ccc(OC)c(OC)c3)c2c1C,16.7
7,COc1cccc(-n2c(N)cc(=O)nc2SCC(=O)Nc2cc(C)on2)c1,0.81
8,O=C(NC(=S)NNC(=O)c1ccccc1F)c1cccnc1,5.32
9,COc1ccc(-c2nc(CSCC(=O)NCc3ccc4c(c3)OCO4)c(C)o2)cc1OC,-1.85
10,O=C(N/N=C/C=C/c1ccccc1)NC1CCCCC1,14.8
11,CCC1CCCCN1C(=O)c1nn2cccnc2c1Cl (stereo not drawn),7.45
12,O=C(CCCn1c(SCC(=O)NCC2CCCO2)nc2ccccc2c1=O)NCC1CCCO1 (stereo not drawn),-1.12
13,COc1ccc(CC(=O)Nc2nc(-c3ccc(F)c(F)c3)cs2)cc1OC,7.32
14,Cc1ccc(S(=O)(=O)N(C)c2c(C)ccc(S(=O)(=O)N3CCN(C=O)CC3)c2C)cc1,1.14
15,COC(=O)c1cc(S(=O)(=O)NCCCN2CCCC2=O)cn1C,11
16,CCOC(=O)c1c(C)[nH]c(C(=O)COC(=O)c2ccc(O)cc2O)c1C.CN(C)C=O,10.5
17,COC(=O)CSc1nccc(-c2ccc(F)cc2)c1C#N,12.1
18,Cc1cc(NC(=O)c2ccc([N+](=O)[O-])cc2Cl)no1,16.1
19,CCCCN(CCCC)CC(O)COc1ccccc1C(=O)Nc1ccccc1 (stereo not drawn),-55
20,CCCCc1cn(C[C@H]2CC[C@@H]([C@@H]3CC[C@H](Cn4cc(CCCC)nn4)O3)O2)nn1,-31.8
21,O=C(c1cc2ccccc2oc1=O)N(c1ccc(Cl)cc1)C1C=CS(=O)(=O)C1 (stereo not drawn),2.88
22,Cc1cc(C(=O)OCC(=O)N2CC(=O)Nc3ccccc32)c(C)n1-c1ccc(F)cc1,6.7

row,SMILES,"hERG current change (%, negative = inhibition) at 1uM [%]"
1,Cc1onc(C(=O)Nc2cccnc2Cl)c1[N+](=O)[O-],9.55
2,CN(C)/C(CN1CCCCC1)=C1\N=C(c2ccccc2)OC1=O,1.43
3,COc1ccc(-c2nnc(SCC(=O)Nc3cc(C)on3)n2N)cc1OC,17.1
4,CN(C)/C=C(\C#N)S(=O)(=O)C(C)(C)C,14.4
5,CC1=Nc2cc([N+](=O)[O-])ccc2NC(C)(C)C1,0.171
6,CC1=NN(C(N)=S)C(=O)C1N=Nc1ccc(Br)cc1 (stereo not drawn),11.3
7,O=C(O)C1Sc2[nH]c(=O)sc2C2c3cc(Br)ccc3OC(=O)C12 (stereo not drawn),8.73
8,COc1ccc(NC(=O)CN(c2cccc(F)c2)S(C)(=O)=O)cc1OC,11.6
9,CCN(CC)CCN1C(=O)c2oc3ccccc3c(=O)c2C1c1cccc(Br)c1 (stereo not drawn),-18
10,CCCN(CCO)Cc1cccc(Br)c1,3.48
11,COCCNC(=O)COC(=O)c1ccc(OCC(=O)Nc2ccccc2OC)c(OC)c1,9.82
12,CCCCCCCN1C/C=C\C(c2ccc(OC)cc2)N(Cc2ccc(F)cc2)C(=O)[C@H]1Cc1ccccc1 (stereo partly drawn),9.9
13,O=P(Oc1ccccc1)(Oc1ccccc1)C(O)c1ccccc1 (stereo not drawn),5.38
14,O=C(CN1C(=O)/C(=C/c2ccccc2)SC1=S)NC1C=CS(=O)(=O)C1 (stereo not drawn),10.3
15,CCOC(=O)c1c(C)nc2sc(C(=O)Nc3ccc(OC)cc3)c(N)c2c1-c1ccc(OC)cc1,14
16,CCOc1ncccc1C(=O)Nc1ncc(C)s1,10.7
17,COc1cc(NC(=O)C2CCN(S(=O)(=O)c3ccc4[nH]c(=O)oc4c3)CC2)cc(OC)c1,12.7
18,Cc1ccc(S(=O)(=O)N(CC(=O)N2CCOCC2)C2CCCCC2)cc1,-9.79
19,CNC(=O)c1cc(C(=O)c2ccc(F)cc2C(F)(F)F)c[nH]1,12.1
20,NS(=O)(=O)c1ccc(CCNC(=O)C2CCN(S(=O)(=O)c3cccc4cccnc34)CC2)cc1,-7.42
21,COc1ccc(NC(=O)c2cc(SC)ccc2Cl)cc1,17
22,CSc1nc(C)cc(SCCO)n1,7.89

row,SMILES,"hERG current change (%, negative = inhibition) at 1uM [%]"
1,CC(=O)Nc1ccc(NC(=O)c2nc(S(=O)(=O)Cc3ccccc3)ncc2Cl)cc1,18.1
2,CCOC(=O)c1oc2cccc(OCC(O)CNC(C)C)c2c1C.Cl (stereo not drawn),7.86
3,COc1ccc(N2CCN(CCCNC(=O)CN3CCN(Cc4ccccc4C)C3=O)CC2)cc1,-16.7
4,Cc1cccc(NC(=O)NC(C)C(c2cccs2)N2CCOCC2)c1 (stereo not drawn),20.8
5,Cn1c(COc2ccccc2)nnc1SCC(=O)NNC(=O)C1CCCCC1,14.1
6,O=S(=O)(N/N=C/c1ccccc1F)c1ccccc1,5.46
7,Cc1cc(C(=O)NNc2ccc(F)cc2F)no1,14
8,COc1cc2c(cc1OC)-c1cc(Nc3ccc(F)cc3)nc(=O)n1CC2,3.46
9,CCSc1nnc(NC(=O)CCCOc2ccc(C)cc2)s1,12.2
10,Cc1cccc(C(=O)OCC(=O)Nc2ccc(N3CCCCC3)cc2)c1O,18
11,O=C(CN1CCC(c2nc3ccccc3s2)CC1)N1CCCCC1,-0.402
12,COc1cc(C2C(C(=O)/C=C/c3ccccc3)=C(O)C(=O)N2c2ccccn2)ccc1O (stereo not drawn),18.3
13,COc1ccc(C2C(=O)N(C3CCCCC3)CC(=O)N2Cc2ccc3c(c2)OCO3)cc1 (stereo not drawn),4.4
14,COc1ccc2nc(SCC(=O)NCc3ccc(OC)c(OC)c3)[nH]c2c1,12.6
15,Fc1ccc(Oc2nc(-c3ccccn3)nc3ccccc23)cc1,13.8
16,Cc1ccc(C(c2nnnn2Cc2cccs2)N2CCN(C(=O)c3ccco3)CC2)cc1 (stereo not drawn),-11
17,CCSc1nc(C)c(CCOc2cccc(C)c2)c(=O)[nH]1,10.3
18,COC(=O)C(NC(=O)CCc1c(C)nc2c(c(C)nn2-c2ccccc2)c1C)C(C)C (stereo not drawn),8.09
19,Cc1oc(/N=C/c2ccc3c(c2)OCO3)c(C#N)c1C,5.55
20,N#CCC(=O)Nc1ccc(C(=O)NCc2ccccn2)cc1,5.8
21,Cc1ccc(Nc2nc(CSc3nnc(-c4cccs4)o3)cs2)cc1,12.5
